The whole screen tested about 360,000 compounds, of which about 830 (0.23%) were called active. Inconclusive means that the source gave no clear call. Such entries were picked first, then a sample of the others.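 How the source made its calls: active means mean luciferase reporter signal, scaled so untreated is 0 and the glycosylation-blocking control 100, at or above a set limit in every replicate; inconclusive means mean reaches the limit but not every replicate does; inactive means mean below the limit.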
Experiment: increase of ERlucT glycosylation luciferase signal, primary screen, N-linked glycosylation inhibitor project, D54 ERlucT cells, luminescence, set 2 (AID 588692);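 further: luciferase carries N-glycosylation sites so blocking glycosylation raises the light; 0% = median of neutral control wells and 100% = median of 100 nM tunicamycin wells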
Details: 24 h, at 12.5 µM, active compounds read high, percent of 100 nM tunicamycin response

Row | SMILES | reporter increase
1 | CCN1CCN(S(=O)(=O)c2ccc(Cl)c(C(=O)Nc3ccccc3N3CCCCC3)c2)CC1 | inactive: -6.53%
2 | CCc1cc(=O)oc2cc(C)cc(OC(C)C(=O)NC(Cc3c[nH]c4ccc(O)cc34)C(=O)O)c12 (configuration not stated) | inactive: 2.26%
3 | Cc1ccc(N=Nc2c(N)nn(-c3ccccc3)c2N)cc1 | inconclusive: 26.1%
4 | CCOc1ccc(NC(=O)C(=O)NCCN2CCN(S(=O)(=O)c3ccc(C)cc3)CC2)cc1 | inconclusive: 29.5%
5 | COc1ccc(NC(=O)c2cc3c(=O)n(C)c4ccccc4c3n2C)cc1OC | inconclusive: 27.6%
6 | CCOc1cc(N2CCOCC2)c(OCC)cc1NC(=O)c1[nH]c(C)c(C(C)=O)c1C | active: 29%
7 | Cc1noc(C)c1COc1cccc(C(=O)OC(C)C(=O)Nc2ccc3c(c2)OCO3)c1 (configuration not stated) | inconclusive: 30.3%
8 | O=c1nccc(N/N=C/c2ccccc2O)[nH]1 | inconclusive: 69.1%
9 | CC(=O)Oc1ccc2nc(/C=C/c3ccc(C=O)cc3)oc(=O)c2c1 | inactive: 0.74%
10 | O=C(COc1ccc(/C=N/NC(=O)c2cc3ccccc3o2)cc1Cl)Nc1ccccc1 | inconclusive: 25.1%
11 | CCCn1c(CN2CCN(C(=O)OCC)CC2)nc2cc(NC(=O)CC)ccc21 | inconclusive: 26.8%
12 | COc1ccc(Cl)cc1S(=O)(=O)Nc1ccc2c(c1)n(C)c(=O)n2C | active: 58.3%
13 | COc1cccc(CNc2ncc(C(=O)Nc3cc(OC)c(OC)c(OC)c3)c(C)n2)c1 | inconclusive: 25.4%
14 | CCOC(=O)C(C)Oc1cccc2c(=O)n(CC(=O)NCc3ccco3)ccc12 (configuration not stated) | inconclusive: 28.4%
15 | O=C(Nc1ccc(N2CCOCC2)c(Cl)c1)c1ccc([N+](=O)[O-])o1 | inconclusive: 28.8%
16 | COc1ccc(CC(=O)NCc2ccccc2)cc1 | inconclusive: 29%
17 | O=C1c2ccccc2C(=O)c2c(NCCCN(CCO)CCO)cccc21 | active: 116%
18 | Cc1ccc(NC(=O)N2CCc3ccccc3C2)cc1C | inactive: 0.769%
19 | Cc1nnc2c(NC(C)C)nc3ccccc3n12 | inconclusive: 25.1%
20 | O=C(Nc1cc(-c2nc3ncccc3o2)ccc1Cl)c1ccc([N+](=O)[O-])o1 | inconclusive: 33.8%
21 | COc1ccc2cc(-c3csc(-c4cccnc4)n3)ccc2c1 | inactive: 0.419%
22 | COc1ccccc1C(=O)NC(=O)CSc1nncn1C | inactive: 0.447%

Row | SMILES | reporter increase
23 | Cc1ccc2nc(/C(C#N)=C/c3cn[nH]c3-c3ccc(F)cc3)[nH]c2c1 | active: 31.5%
24 | CN(C)CCCNc1c2c(nc3ccccc13)CCC2 | active: 29.8%
25 | CCOc1ccc(NC(=S)Nc2cccc3cnccc23)cc1 | inactive: 3.04%
26 | CC(C)n1c(/C=C/[C@@H](O)C[C@@H](O)CC(=O)O)c(-c2ccc(F)cc2)c2ccccc21 | inconclusive: 36.1%
27 | CCOc1ccc2nc(NC(=O)C3CCCN(S(=O)(=O)c4cccc5nonc45)C3)sc2c1 (configuration not stated) | inactive: -1.72%
28 | CC1(C(=O)Nc2ccc3c(c2)OCO3)Cc2c(-c3ccc4c(c3)OCO4)ccnc2O1 (configuration not stated) | inconclusive: 25.7%
29 | CCC(=O)Nc1ccc2c(c1)Cc1cc([N+](=O)[O-])ccc1-2 | inactive: -0.226%
30 | CCCCN(C)CC(O)Cn1cc(/C=C/C(=O)c2cccs2)c2ccccc21 (configuration not stated) | inconclusive: 28.2%
31 | CCOC(=O)c1sc(Nc2nc(C)cc(C)n2)nc1C | inconclusive: 28.3%
32 | CCCCCCCCn1c2c(c(=N)c3c1CCC3)CCCC2 | inconclusive: 26%
33 | COc1ccc(/C=C2\N=C(c3ccccc3Cl)NC2=O)cc1 | inconclusive: 25.2%
34 | COc1ccc(/C=N/NC(=O)CCn2c3ccccc3c3ccccc32)cc1O | inconclusive: 25.2%
35 | COc1ccccc1NC(=O)N1CCC(c2nc3cc(C)c(C)cc3[nH]2)CC1 | inconclusive: 25.6%
36 | CCN(CCCNC(=O)c1ccc(N2CCCC2=O)cc1)c1cccc(C)c1 | inactive: -0.412%
37 | COc1ccc(C(=O)c2cc(OC)c(OC)c(OC)c2)cc1OC | inconclusive: 26.2%
38 | COc1ccc(-c2[nH]nc(-c3ccccc3)c2-c2nc3ccccc3[nH]2)cc1 | inconclusive: 28.1%
39 | COc1ccccc1-c1csc(C(NC(C)=O)c2ccc(F)c(F)c2)n1 (configuration not stated) | inconclusive: 27%
40 | COc1ccc(C=CC(=O)c2ccc(OC)c(OC)c2O)cc1OC | active: 36.6%
41 | COc1ccc(-c2n[nH]c3c2CN(C(=O)c2ccc(OC)c(OC)c2)CC3)cc1 | active: 39.3%
42 | CC(C)OCCCNC(=O)c1cccc(NC(=O)c2ccccc2)c1 | inactive: 0.441%
43 | O=S(=O)([N-]c1nc2ccccc2nc1-n1cc[n+](Cc2ccccc2)c1)c1ccc(Cl)cc1 | active: 46.5%
44 | CC[C@@H]1CC=C[C@H]2[C@H]1C(=O)N(Cc1ccccc1)[C@H]2c1ccoc1 | active: 38.2%

Row | SMILES | reporter increase
45 | Cc1ccc(NCCN(C)C)c2c(=O)c3cc(O)ccc3sc12 | active: 62.5%
46 | O=c1c2sccc2nc(SCc2ccc([N+](=O)[O-])cc2)n1Cc1ccccn1 | inactive: -4.47%
47 | CC(=O)c1ccc(NC(=O)c2ccc([N+](=O)[O-])o2)cc1 | inconclusive: 28.2%
48 | Cc1ccccc1OCc1nc(-c2ccc(NC(=O)c3ccc4c(c3)OCO4)cc2)no1 | inconclusive: 31.7%
49 | Nc1nc(=S)c2ncn([C@@H]3O[C@H](CO)[C@@H](O)[C@H]3O)c2[nH]1 | inconclusive: 32.8%
50 | CCc1ccc2nc3nc(C)cc(C)c3c(N)c2c1 | active: 85.1%
51 | CCn1cnc2cc(NCc3nc4ccccc4n3C)ccc21 | inactive: -7.02%
52 | O=[N+]([O-])c1cccc(-c2cn(-c3ccccc3)c(=S)[nH]2)c1 | inactive: 2.36%
53 | CC[C@H](C)[C@H](NC(=O)c1ccc(Cl)cc1)C(=O)OCC(=O)c1ccc2c(c1)NC(=O)CO2 | inconclusive: 30.2%
54 | O=c1[nH]c(=O)n(C2CC(O)C(CO)O2)cc1Br (configuration not stated) | active: 35.8%
55 | O=C(CSc1nc(-c2ccccc2)cc(C(F)(F)F)n1)NCc1ccco1 | inactive: -1.58%
56 | O=C(CCc1ccccn1)N1CCCC(Nc2ccc(F)cc2)C1 (configuration not stated) | inactive: -0.123%
57 | C=CCn1c(SCc2nc3ccccc3c(=O)[nH]2)nc2scc(C3CC3)c2c1=O | inactive: -0.137%
58 | CCO[C@H]1OC(C(=O)N2CCOCC2)=C[C@@H](c2cn(C(C)=O)c3ccccc23)[C@@H]1CCCO | inactive: 3.24%
59 | O=c1oc2cc(Cl)ccc2n1CSc1nc2ccccc2s1 | inactive: -3.41%
60 | COc1ccc(Nc2nc(N(C)c3ccccc3)nc(N)c2[N+](=O)[O-])cc1 | inconclusive: 36.4%
61 | CC1CCN(c2nc(Cl)nc(Nc3ccc([N+](=O)[O-])cc3)n2)CC1 | inactive: -5.29%
62 | CCCCCCC(=O)N(O)C1CC(=O)N(Cc2ccccc2)C1=O (configuration not stated) | active: 49.2%
63 | Cc1ccc2nc(-c3ccccc3)cc(C(=O)N3CC(C)OC(C)C3)c2c1 (configuration not stated) | inconclusive: 29.5%
64 | CNc1cc(NS(=O)(=O)c2ccc(N)cc2)nc(NC)n1 | inactive: 2.1%
65 | COc1ccc(S(=O)Cc2ccc(C(=O)N3CCN(c4cccc(C)c4C)CC3)o2)cc1 (configuration not stated) | inconclusive: 25.9%
66 | Cc1ccc(-n2cccc2C(=S)N=P(N(C)C)(N(C)C)N(C)C)cc1 | inconclusive: 26.2%

Row | SMILES | reporter increase
67 | CCc1ccc(CN2CCCC(CNC(=O)c3cccc(OC)c3OC)C2)cc1 (configuration not stated) | inactive: -0.02%
68 | Cc1cc(C(C)(C)CC(C)(C)C)ccc1OCCOCC[N+](C)(C)Cc1ccccc1 | inconclusive: 30.1%
69 | OC(c1cccc(CN2CCCCC2)c1)c1ncc(-c2cccc(C(F)(F)F)c2)[nH]1 (configuration not stated) | inactive: -4.75%
70 | COc1cc(-c2nc3ccc(N4CCN(C)CC4)cc3[nH]2)cc(OC)c1OC | inconclusive: 28.6%
71 | COc1ccc(NC(=O)C2(C)Cc3c(-c4cccc(NC(C)=O)c4)ccnc3O2)cc1 (configuration not stated) | inconclusive: 25%
72 | COC(=O)c1ccc(/C=C2/SC(=S)N(CCCC(=O)Nc3ccccn3)C2=O)cc1 | inactive: -3.94%
73 | C[C@@H]1[C@@H](Sc2ccccc2)CC(=O)O[C@@H]1c1ccc(-c2ccccc2)cc1 | inconclusive: 30.7%
74 | CC1CCC(NC(=O)N(CCCl)N=O)CC1 (configuration not stated) | inconclusive: 26.9%
75 | CC1CCC2(CC1)NC(=O)N(CC(=O)Nc1ccc3c(c1)CCC3)C2=O (configuration not stated) | inconclusive: 37.9%
76 | CCN1C(=O)Nc2cccc3cccc1c23 | active: 30.3%
77 | CNc1ccc(/C=C/C(=O)c2cccc3ccccc23)cc1[N+](=O)[O-] | active: 45.7%
78 | N#C/C(=C/c1ccc(N2CCCCCC2)o1)c1ccc(Cl)cc1 | inactive: 16.7%
79 | O=[N+]([O-])c1ccc(C=Nc2ccc(Cl)c([N+](=O)[O-])c2)s1 | inconclusive: 26.5%
80 | COC(=O)c1ccc(S(=O)(=O)N2CCc3ccccc32)cc1 | inconclusive: 27.1%
81 | COc1ccc2nc3c(cc2c1)c(NC(=O)CC(C)C)nn3CC(C)C | inconclusive: 30.4%
82 | Cc1cc(C)c2c(c1)/C(=C/C(=O)c1ccc(Br)s1)C(=O)N2 | inconclusive: 34.4%
83 | Cc1cc(C)c(C#N)c(N2CCCC(C(N)=O)C2)n1 (configuration not stated) | inactive: -0.024%
84 | CC(=O)Nc1ccc(NC(=O)c2ccc(-c3c(C)noc3C)c3ccoc23)cc1 | inconclusive: 25%
85 | COc1cc(C(=O)NCc2ccc(C)cc2)ccc1OCc1c(C)noc1C | inactive: 1.57%
86 | CC(C)(C)NCC(O)CON=C1c2ccccc2-c2ccccc21 (configuration not stated) | active: 35.3%
87 | CCOC(=O)[C@@H]1[C@H]2COc3cc(OC)ccc3[C@@H]2N2C(=O)N(c3ccc(C(F)(F)F)cc3)C(=O)[C@@]12C | inactive: 1.33%

Source: PubChem BioAssay AID588692 (Broad Institute, 2011)
